Experimental data published in publication PMC4336329 (PLoS ONE, 2015).
The whole screen tested about 310,000 compounds, of which about 14,000 (4.5%) showed an effect of 50% or more. Effects have a minus sign here. The list shows a part of the results.

target: human ether-à-go-go-related gene (hERG) potassium channel (human, UniProt Q12809); experiment: primary screen, population patch clamp on CHO cells stably expressing hERG
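Also: peak tail current of the secondary pulse compared with the same well before compound.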

Sequence of human ether-à-go-go-related gene (hERG) potassium channel (Q12809 whole entry, looked up): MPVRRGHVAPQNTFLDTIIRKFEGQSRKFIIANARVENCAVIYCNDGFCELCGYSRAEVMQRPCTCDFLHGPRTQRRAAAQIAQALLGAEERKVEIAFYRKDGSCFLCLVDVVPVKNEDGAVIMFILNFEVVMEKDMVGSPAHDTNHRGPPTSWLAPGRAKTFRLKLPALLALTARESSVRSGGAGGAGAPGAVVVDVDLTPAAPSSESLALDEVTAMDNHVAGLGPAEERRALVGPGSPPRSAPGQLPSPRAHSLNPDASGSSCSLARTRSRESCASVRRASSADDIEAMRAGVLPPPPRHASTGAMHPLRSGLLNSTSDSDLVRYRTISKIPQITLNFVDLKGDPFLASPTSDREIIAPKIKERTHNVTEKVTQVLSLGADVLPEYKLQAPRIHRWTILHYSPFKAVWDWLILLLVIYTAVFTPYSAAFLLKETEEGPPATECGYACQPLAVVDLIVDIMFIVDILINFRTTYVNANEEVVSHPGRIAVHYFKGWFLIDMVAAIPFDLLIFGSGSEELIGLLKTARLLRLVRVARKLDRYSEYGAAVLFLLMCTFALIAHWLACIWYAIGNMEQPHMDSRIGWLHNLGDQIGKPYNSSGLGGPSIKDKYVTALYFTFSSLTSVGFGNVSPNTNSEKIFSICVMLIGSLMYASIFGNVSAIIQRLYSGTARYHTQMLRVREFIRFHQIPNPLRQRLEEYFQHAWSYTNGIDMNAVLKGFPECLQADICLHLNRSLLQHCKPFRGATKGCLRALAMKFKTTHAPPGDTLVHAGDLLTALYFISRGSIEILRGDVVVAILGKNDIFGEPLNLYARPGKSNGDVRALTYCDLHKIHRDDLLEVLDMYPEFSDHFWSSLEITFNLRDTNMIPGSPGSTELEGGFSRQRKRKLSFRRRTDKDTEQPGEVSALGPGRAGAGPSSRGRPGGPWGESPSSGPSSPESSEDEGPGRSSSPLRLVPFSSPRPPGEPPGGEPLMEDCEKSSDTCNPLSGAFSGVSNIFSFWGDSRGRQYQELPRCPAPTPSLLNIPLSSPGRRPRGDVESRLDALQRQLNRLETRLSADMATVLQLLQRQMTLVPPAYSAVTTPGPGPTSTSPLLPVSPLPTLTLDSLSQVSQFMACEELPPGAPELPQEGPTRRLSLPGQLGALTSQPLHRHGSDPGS

Structure (SMILES)	hERG current change (%, negative = inhibition) at 10uM
COc1ccccc1-c1nc(SCc2ccccn2)n[nH]1	-4.23%
C=CCn1c(P(C)(=O)[O-])nc2ccccc21.[K+]	7.28%
CC1(C)CSC(=NCc2ccccc2)N1	13.5%
COc1ccc(C2C(C#N)=C(N)Oc3c2oc(CO)cc3=O)cc1 (stereo not drawn)	-0.696%
COc1ccc(S(=O)(=O)N2CCOC23CCN(S(=O)(=O)c2cc(C)ccc2C)CC3)cc1	8.89%
CCn1cc(C(=O)NCC2CCCO2)c(=O)c2cc(S(=O)(=O)N(C)C3CCCCC3)ccc21 (stereo not drawn)	-31.6%
CN(CC(=O)N1CCc2ccccc21)S(=O)(=O)c1cccc2cccnc12	-8.39%
Cc1onc(-c2ccccc2)c1C(=O)Nc1ccon1	-2.65%
CCCCCSc1nnc(-c2ccccc2NC(C)=O)c(=O)[nH]1	22.5%
COc1ccc(/C=N/Nc2nnc(C)n2N)cc1OC(C)=O.Cl	14.3%
COc1ccccc1N1CCN(c2ccc([N+](=O)[O-])cc2Cl)CC1	10.5%
CC[C@H](C)[C@H](NC(N)=O)C(=O)Nc1ccc(NC(C)=O)cc1	12.5%
O=C(O)CCn1c(=O)sc2ccccc21	7.89%
Cc1ccc(C)c(COc2coc(CN3CCN(C(=O)c4ccco4)CC3)cc2=O)c1	-100%
COc1cccc(OC)c1C(=O)Nc1ccncc1	24.6%
Cc1ccc(OCC(=O)N(Cc2ccccc2)C(C)C)c([N+](=O)[O-])n1	-21%
CNc1ccccc(-c2ccc3cc4c(cc3n2)OCO4)c1=O	-13.4%
COc1ccc(S(=O)(=O)NC(CC(=O)NCCc2ccc(OC)c(OC)c2)C(C)C)cc1 (stereo not drawn)	-0.875%
CCCCCCNc1nc(Cl)nc(NC(C)(C)CO)n1	15.6%

Structure (SMILES)	hERG current change (%, negative = inhibition) at 10uM
CC1CC2=C(C(=O)O1)C(c1ccc(Cl)cc1)Nc1ccccc1N2 (stereo not drawn)	-6.21%
COc1cc(C(=O)OCCN2CCOCC2)cc(OC)c1OC	-5.95%
O=C(Nc1ccccn1)N1CCOCC1	15.1%
Cc1cccc(N(Cc2ccccc2)C(=O)C2CCN(C(=O)c3ccccc3C)CC2)c1	-35.2%
COc1ccc(C2OCC3(CO2)SC(=O)NC3=O)cc1 (stereo not drawn)	1.92%
COc1ccccc1-c1n[nH]c2c1[C@H](C)CC[C@H]2C(C)C	9.34%
O=C1c2nc3cc(-c4ccco4)[nH]n3c(=O)c2CN1Cc1ccccc1	10.7%
COC(=O)CSc1nnc(C)n1-c1cccc(C#N)c1	-0.894%
Cc1cc(=O)[nH]c(SCC(=O)Nc2ncc(S(=O)(=O)c3ccc([N+](=O)[O-])cc3)s2)n1	3.53%
CCOc1ccccc1/C=N/Nc1ccnc(=O)[nH]1	21%
CC(C)Cn1nc(C(=O)Nc2cccc(S(=O)(=O)N3CCCC3)c2)c2ccccc2c1=O	-7.01%
O=C(c1cc(-c2ccncc2)nc2ccc(Cl)cc12)N1CCN(Cc2ccc3c(c2)OCO3)CC1	-46.7%
CCCn1cc(S(=O)(=O)c2ccccc2)c(=O)c2cc(OC)c(OC)cc21	7.08%
CC1(C)SC(=S)N(NC(=O)Nc2cccc3ccccc23)C1N(O)C(=O)Nc1ccccc1 (stereo not drawn)	5.77%
Cc1nc2ncnn2c(N2CCN(C(=O)c3cccc(F)c3)CC2)c1Cc1ccccc1	-45.6%
CN1CCN(C(=O)c2ccc(COc3ccc(C(C)(C)C)cc3)o2)CC1	-37.8%
CC(=O)OC(C(=O)n1nc(C)cc1C)c1ccccc1 (stereo not drawn)	9.08%
CC(=O)Nc1ccc(S(=O)(=O)NCCC(=O)OCc2csc(CC(=O)Nc3ccccc3C)n2)cc1	10.6%
CCc1cccc(C)c1NC(=O)c1cccc(N(C)C)c1	-1.96%

Structure (SMILES)	hERG current change (%, negative = inhibition) at 10uM
CCc1ccc(NC(=O)CNCc2ccc(OC)c(OC)c2)cc1.O=C(O)C(=O)O	-21.3%
Cc1ccc(NC(=O)c2cn(CCC#N)nc2-c2cccs2)c([N+](=O)[O-])c1	-8.76%
O=C(NNC(=S)Nc1ccccc1)NNC(=S)Nc1ccccc1	25.3%
COc1ccc(N2C(=O)C(C)C(Cc3ccc(C)cc3)C2=O)cc1 (stereo not drawn)	12.5%
Fc1cccc(F)c1CN1CCN(c2ccc(Cl)cc2)CC1	13%
O=C(CSc1ccc(-c2ccc(F)cc2)nn1)N1CCCc2ccccc21	-27.4%
COc1cccc(CC(Cc2nc3ccccc3[nH]2)c2nc3ccccc3[nH]2)c1 (stereo not drawn)	-33%
CC(CNc1nc2ccc(Cl)cc2n2cnnc12)c1ccccc1 (stereo not drawn)	18.9%
CCC1CCCCN1C(=O)COC(=O)c1ccc(Br)o1 (stereo not drawn)	12.3%
O=C(/C=C/NCc1ccc(F)cc1)c1ccccc1	-4.3%
COC(=O)COc1ccc(S(=O)(=O)N2CCCCCC2)cc1C	-15.9%
CCCCCOc1ccc(C(=O)NCC2(c3ccccc3)CCOCC2)cc1	-24.2%
CCOC(=O)c1c(C)[nH]c(C)c1S(=O)(=O)N1c2ccccc2CC1C (stereo not drawn)	-0.0566%
CCCCNc1nnc(SCC(=O)N2CCN(S(=O)(=O)c3ccc4ccccc4c3)CC2)s1	-6.38%
Cc1cc(NC(=O)COC(=O)c2c(Cl)cccc2Cl)no1	-7.86%
CCOc1ccc(N(CC(=O)Nc2cccc(Cl)c2)S(=O)(=O)c2c(C)noc2C)cc1	3.11%
Cc1onc(-c2ccccc2)c1C(=O)Nc1sccc1C#N	7.27%
CCOC(=O)NS(=O)(=O)c1ccc(CCNC(=O)c2cc(C)on2)cc1	-3.31%
O=C(O)C(=O)O.Oc1ccc(Cl)cc1CNCC1CCCO1 (stereo not drawn)	-10.9%
